Test results: the antibiotic and cytotoxicity screens of Wong et al. (2023)
The other results are listed elsewhere or left out.

The compounds below were run on HSkMC (human skeletal muscle cells) (assay: cytotoxicity call (relative viability < 0.9)). Details: 10 µM.
For `C[C@@H]1CCCCO[C@@H](CN(C)C(=O)Nc2ccc(F)cc2)[C@H](C)CN([C@@H](C)CO)C(=O)c2cc(NC(=O)Nc3ccc(C(F)(F)F)cc3)ccc2O1`, the cytotoxicity call was “inactive”.
With `CCCC#Cc1cnc2c(c1)C(=O)N([C@H](C)CO)C[C@@H](C)[C@H](CN(C)C(=O)c1ccc3c(c1)OCO3)O2` the cytotoxicity call was “inactive”.
`C[C@@H]1CN([C@@H](C)CO)C(=O)c2cccc(NS(=O)(=O)c3ccc(Cl)cc3)c2O[C@H]1CN(C)Cc1ccc(Cl)c(Cl)c1` was tested, and the cytotoxicity call was “inactive”.
`Nc1ccc(Oc2ccccc2)cc1` was tested, and the cytotoxicity call was “inactive”.
`COc1ccc(CN(C)C[C@H]2Oc3ccc(NC(=O)Cn4cnnn4)cc3CC(=O)N([C@@H](C)CO)C[C@@H]2C)cc1` was tested, and the cytotoxicity call was “inactive”.
`CNC[C@H]1OCCCC[C@H](C)Oc2ccc(NC(=O)Nc3cccc4ccccc34)cc2C(=O)N([C@H](C)CO)C[C@@H]1C` was tested, and the cytotoxicity call was “inactive”.
In the case of `COc1ccc(S(=O)(=O)Nc2ccc3c(c2)C(=O)N([C@H](C)CO)C[C@@H](C)[C@@H](CN(C)S(=O)(=O)c2ccc(C)cc2)O3)cc1`, the cytotoxicity call is reported as “inactive”.
With `CC(=O)Oc1ccn(C)c(=O)c1C#N` the cytotoxicity call was “inactive”.
For `C[C@H](CO)N1C[C@H](C)[C@H](CN(C)C(=O)Nc2ccc(C(F)(F)F)cc2)Oc2c(NC(=O)c3ccc(-c4nccs4)cc3)cccc2C1=O`, the cytotoxicity call was “inactive”.
In the case of `CC(CN1CC(=O)NC(=O)C1)N1CC(=O)NC(=O)C1` (configuration not stated), the cytotoxicity call is reported as “inactive”.
For `O=C(CN1CCOCC1)NCC[C@@H]1CC[C@H](NS(=O)(=O)c2ccc(Cl)cc2)[C@@H](CO)O1`, the cytotoxicity call was “inactive”.
`C[C@@H]1CN([C@@H](C)CO)C(=O)c2cccc(NC(=O)c3cnccn3)c2O[C@@H]1CN(C)S(=O)(=O)c1ccccc1` was tested, and the cytotoxicity call was “inactive”.
